PMC4336329 (PLoS ONE, 2015)
Among all 310,000 compounds or so, about 14,000 (4.5%) showed an effect of 50% or more. Effects have a minus sign here. The list shows a part of the results.

Each molecule was assayed against human ether-à-go-go-related gene (hERG) potassium channel (human, UniProt Q12809) (assay: primary screen, population patch clamp on CHO cells stably expressing hERG).
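Further: peak tail current of the secondary pulse compared with the same well before compound.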

Sequence of human ether-à-go-go-related gene (hERG) potassium channel (Q12809 whole entry, looked up): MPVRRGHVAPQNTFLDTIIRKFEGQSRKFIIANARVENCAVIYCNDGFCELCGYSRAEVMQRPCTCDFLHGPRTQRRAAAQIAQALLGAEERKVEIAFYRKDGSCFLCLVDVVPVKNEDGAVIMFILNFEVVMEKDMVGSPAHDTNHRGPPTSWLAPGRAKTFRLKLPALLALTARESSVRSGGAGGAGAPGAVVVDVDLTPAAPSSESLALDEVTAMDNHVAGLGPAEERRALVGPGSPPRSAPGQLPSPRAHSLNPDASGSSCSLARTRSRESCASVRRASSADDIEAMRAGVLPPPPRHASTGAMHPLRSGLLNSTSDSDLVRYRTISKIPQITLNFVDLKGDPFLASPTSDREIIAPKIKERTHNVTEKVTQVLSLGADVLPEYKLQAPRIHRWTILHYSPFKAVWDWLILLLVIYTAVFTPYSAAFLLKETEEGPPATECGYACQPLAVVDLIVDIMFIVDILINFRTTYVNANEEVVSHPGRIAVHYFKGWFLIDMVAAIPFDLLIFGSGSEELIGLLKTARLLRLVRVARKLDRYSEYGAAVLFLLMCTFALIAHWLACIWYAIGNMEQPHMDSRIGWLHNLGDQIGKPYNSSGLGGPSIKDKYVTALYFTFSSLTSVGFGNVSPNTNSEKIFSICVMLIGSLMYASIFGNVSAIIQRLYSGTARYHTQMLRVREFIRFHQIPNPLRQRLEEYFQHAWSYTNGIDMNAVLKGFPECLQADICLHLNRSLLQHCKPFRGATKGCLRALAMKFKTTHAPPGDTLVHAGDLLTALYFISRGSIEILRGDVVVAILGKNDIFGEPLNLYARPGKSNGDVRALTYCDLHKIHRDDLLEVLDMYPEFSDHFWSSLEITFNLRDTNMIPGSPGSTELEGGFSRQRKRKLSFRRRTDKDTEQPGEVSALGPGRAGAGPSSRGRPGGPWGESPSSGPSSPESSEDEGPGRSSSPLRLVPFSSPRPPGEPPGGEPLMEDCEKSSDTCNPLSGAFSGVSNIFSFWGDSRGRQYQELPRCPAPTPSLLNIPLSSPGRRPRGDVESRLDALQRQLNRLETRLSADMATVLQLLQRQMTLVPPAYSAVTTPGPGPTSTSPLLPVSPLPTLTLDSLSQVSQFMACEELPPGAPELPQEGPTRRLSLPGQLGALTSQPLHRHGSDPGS

Going from `Cc1ccc(N2C(=NC(=O)c3ccccc3)SC3CS(=O)(=O)CC32)cc1` (stereo not drawn) to `Cc1ccc(N(CC(=O)NC(C)c2ccccc2)S(=O)(=O)c2cccs2)cc1` (stereo not drawn), the “hERG current change (%, negative = inhibition) at 10uM” value falls from 10.8% to 2.82%.

Going from `CC(C)n1nnnc1SCC(=O)c1ccc2c(c1)OCCO2` to `Cc1ccc(C(=O)C(C)OC(=O)C2=COCCO2)cc1C` (stereo not drawn), the “hERG current change (%, negative = inhibition) at 10uM” value falls from 5.65% to -3.75%.

Going from `O=C(CC1c2ccccc2Oc2ccccc21)N1CCN(c2ccccn2)CC1` to `O=C(C1CCCN(S(=O)(=O)c2cccc3nonc23)C1)N1CCN(c2ccccc2Cl)CC1` (stereo not drawn), the “hERG current change (%, negative = inhibition) at 10uM” value falls from -6.59% to -18.4%.

Going from `COc1ccc2cc(CCNC(=O)c3ccc4c(c3)OCO4)c(=O)[nH]c2c1` to `O=C(N/N=C/c1ccccc1)c1ccc2c(c1)OCO2`, the “hERG current change (%, negative = inhibition) at 10uM” value rises from -11.9% to -1.44%.

First: C#CCOCCOCCOCCNc1nc(N2CCOCC2)nc(N2CCN(C(=O)Cn3cc(CC(C)O)nn3)CC2)n1 (stereo not drawn)
Second: CCN1CCN(c2ccc(NC(=O)c3cccnc3)cc2Cl)CC1
The “hERG current change (%, negative = inhibition) at 10uM” value of the first is higher: -1.31% for the first, -16.8% for the second.

Going from `CN(Cc1ccccc1OCCO)CC1CCCN(CCc2ccc(Cl)cc2)C1` (stereo not drawn) to `COc1cccc(CNC(=O)CCC2CCCN(C(=O)c3cccc(Cl)c3)C2)c1` (stereo not drawn), the “hERG current change (%, negative = inhibition) at 10uM” value rises from -66.9% to -20.9%.

Going from `CC(C)CC(=O)NC(NCC1CCCO1)C(Cl)(Cl)Cl` (stereo not drawn) to `COC(=O)C1=C(c2ccc(C(C)=O)cc2)C[C@@H]2CC[C@H]1N2C(=O)NCCCOC(C)C`, the “hERG current change (%, negative = inhibition) at 10uM” value rises from -2.53% to 1.03%.

First: O=C(O)C1C2CC2CN1C(=O)c1ccc(Cl)cc1 (stereo not drawn)
Second: Cc1ccc(NC(=O)C2CCCN(C(=O)c3ccc(Cl)cc3)C2)c(C)c1 (stereo not drawn)
The “hERG current change (%, negative = inhibition) at 10uM” value of the first is higher: 17.4% for the first, -59% for the second.

First: Cl.c1ccc(C2NCc3ccccc3-n3cccc32)cc1 (stereo not drawn)
Second: C(=C\c1ccc(/C=C/c2ccccc2)nn1)/c1ccccc1
The “hERG current change (%, negative = inhibition) at 10uM” value of the first is lower: -9.86% for the first, 26.1% for the second.

Compared with `O=C(COC(=O)/C=C/c1ccco1)NC1CCCCC1`, `O=C(COC(=O)c1ccc2c(c1Cl)C(=O)c1ccccc1C2=O)NC1CC1` is higher in “hERG current change (%, negative = inhibition) at 10uM” value: 5.33% for the first, 8.74% for the second.

Going from `COc1ccc(Cl)cc1NC(=O)CN(C)C(=O)Cc1n[nH]c(=O)c2ccccc12` to `COc1cccc(C(N)=O)c1OC(=O)Cc1ccccc1F`, the “hERG current change (%, negative = inhibition) at 10uM” value rises from -13.7% to 9.25%.

Going from `CSCCC(NS(=O)(=O)c1ccc(Cl)cc1)C(=O)OCc1cccc(Cl)c1` (stereo not drawn) to `Cc1cccc(NC(=O)C(NS(=O)(=O)c2ccc3c(c2)CCC(=O)N3)c2ccccc2)n1` (stereo not drawn), the “hERG current change (%, negative = inhibition) at 10uM” value falls from 2.72% to -12.9%.

First: Cc1csc(NC(=O)CSc2ccc(-c3ccccc3)nn2)n1
Second: CCn1c(COc2ccccc2)nnc1SCC(=O)NCc1ccco1
The “hERG current change (%, negative = inhibition) at 10uM” value of the first is lower: -66.9% for the first, -4.11% for the second.

Going from `COC(=O)c1c(NC(=O)Cc2ccccc2)sc2c1C(C(=O)OC)CC2` (stereo not drawn) to `CCOC(=O)c1c(O)cc(C)cc1Nc1ccccc1`, the “hERG current change (%, negative = inhibition) at 10uM” value rises from -17.1% to 10.6%.

First: Cc1ccc2c(c1)CCCN2C(=O)Nc1ccc2c(c1)OCO2
Second: Cc1cccc(NC(=O)c2ccc(Cl)c(S(=O)(=O)N3CCCCCC3)c2)n1
The “hERG current change (%, negative = inhibition) at 10uM” value of the first is higher: 11.2% for the first, -25.1% for the second.

Going from `CN1CCN(C(CNS(=O)(=O)c2ccc(F)cc2)c2cccnc2)CC1` (stereo not drawn) to `CCOc1ccc(S(=O)(=O)N2CCC(C(=O)N3CCc4ccccc4C3)CC2)cc1`, the “hERG current change (%, negative = inhibition) at 10uM” value falls from -7.43% to -26.1%.

Going from `O=C(COc1ccccc1[N+](=O)[O-])N/N=C/c1ccncc1` to `O=C(Nc1cccc(O)c1)C(=O)Nc1ccccn1`, the “hERG current change (%, negative = inhibition) at 10uM” value rises from 3.46% to 9.79%.

Going from `CC12CCC(C(=O)N(CC(O)CN3CCN(Cc4ccccc4)CC3)C1=O)C2(C)C.Cl` (stereo not drawn) to `Cn1c(SCC(=O)N2CCc3ccccc32)nnc1C1CC1`, the “hERG current change (%, negative = inhibition) at 10uM” value rises from -6.03% to 15.1%.

Going from `CCOc1ccc(N2C(=O)S/C(=C\c3ccc(O)c(OCC)c3)C2=O)cc1` to `COc1ccc(CCn2c(=N)c(C(=O)NC3CCCC3)cc3c(=O)n4cccc(C)c4nc32)cc1`, the “hERG current change (%, negative = inhibition) at 10uM” value falls from 5.06% to -77.8%.

Compared with `N#Cc1ccc(C23CC4(C2)[C@H](CN(Cc2ccc(-c5ccccc5)cc2)[C@@H]4c2ccccc2)C3c2ccc(C(F)(F)F)cc2)cc1` (stereo partly drawn), `COc1ccc(C(=O)OCC2CC(c3ccccc3)N(C)O2)cc1` (stereo not drawn) is lower in “hERG current change (%, negative = inhibition) at 10uM” value: 6.84% for the first, -17.5% for the second.

Compared with `Cc1onc(-c2ccccc2Cl)c1C(=O)Nc1nnc(-c2ccc(Br)cc2)s1`, `CCC1=NN(C(=O)c2ccccc2Br)C(O)(c2ccc(Br)cc2)C1` (stereo not drawn) is higher in “hERG current change (%, negative = inhibition) at 10uM” value: 16.2% for the first, 25.2% for the second.

Compared with `O=c1c2c(n3nnnc3n1-c1ccccc1)-c1ccccc1CC21CCCC1`, `O=C(NNC1CC(=O)N(c2ccccc2)C1=O)c1cccnc1` (stereo not drawn) is higher in “hERG current change (%, negative = inhibition) at 10uM” value: 7.98% for the first, 18.6% for the second.

Compared with `CCCCCCCn1c(NC(=O)CC)nc2ccccc21`, `CC(C)C(=O)NCCc1nc2ccccc2n1CCOc1ccccc1` is higher in “hERG current change (%, negative = inhibition) at 10uM” value: -37.3% for the first, -15.1% for the second.

Compared with `COC(=O)c1cc(NS(=O)(=O)c2ccc(NCc3cccnc3)c([N+](=O)[O-])c2)cc(C(=O)OC)c1`, `N#Cc1ccc(-c2ccco2)nc1SCC(=O)c1ccc(Cl)cc1` is higher in “hERG current change (%, negative = inhibition) at 10uM” value: 5.61% for the first, 15.3% for the second.

Going from `Cc1cccc(N(CC(=O)N2CCc3ccccc3C2)S(C)(=O)=O)c1C` to `COc1ccc(-c2c(=O)n(OC)c3ccccc3[n+]2[O-])cc1OC`, the “hERG current change (%, negative = inhibition) at 10uM” value rises from 1.47% to 23.5%.

Compared with `COc1cccc(N(C(=O)C2COc3ccccc3O2)C(C(=O)NC2CCCCC2)c2ccc(O)cc2)c1` (stereo not drawn), `OCCNCC(O)Cn1c2ccccc2c2ccccc21` (stereo not drawn) is higher in “hERG current change (%, negative = inhibition) at 10uM” value: 3.39% for the first, 10.2% for the second.

Going from `CC(=O)c1c(C)[nH]c(C(=O)OC2CCCCC2=O)c1C` (stereo not drawn) to `Cc1c(CCC(=O)N2CCC(C(=O)O)CC2)c(=O)oc2cc3oc4c(c3cc12)CCCC4`, the “hERG current change (%, negative = inhibition) at 10uM” value falls from 12% to 11.8%.
